Experiment [1] concerns the target T1, BPG2^1-238 (two-hybrid fusion) (Arabidopsis) (UniProt Q8W4I6).
T1 sequence: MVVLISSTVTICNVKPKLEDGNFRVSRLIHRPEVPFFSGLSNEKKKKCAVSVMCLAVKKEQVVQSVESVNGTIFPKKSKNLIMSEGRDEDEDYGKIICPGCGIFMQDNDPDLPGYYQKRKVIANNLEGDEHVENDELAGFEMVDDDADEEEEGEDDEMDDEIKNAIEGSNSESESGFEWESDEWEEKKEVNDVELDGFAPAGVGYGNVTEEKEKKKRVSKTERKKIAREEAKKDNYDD
Kind of experiment: two-hybrid; co-transformation into Y2H Gold; spotted on QDO (SD/-Ade/-His/-Leu/-Trp) with X-alpha-Gal, 3-4 days at 30°C.

The chains behind the UniProt entries cited, without tags or fusion partners. Residues count along the entry.
UniProt P17745, residues 68-476: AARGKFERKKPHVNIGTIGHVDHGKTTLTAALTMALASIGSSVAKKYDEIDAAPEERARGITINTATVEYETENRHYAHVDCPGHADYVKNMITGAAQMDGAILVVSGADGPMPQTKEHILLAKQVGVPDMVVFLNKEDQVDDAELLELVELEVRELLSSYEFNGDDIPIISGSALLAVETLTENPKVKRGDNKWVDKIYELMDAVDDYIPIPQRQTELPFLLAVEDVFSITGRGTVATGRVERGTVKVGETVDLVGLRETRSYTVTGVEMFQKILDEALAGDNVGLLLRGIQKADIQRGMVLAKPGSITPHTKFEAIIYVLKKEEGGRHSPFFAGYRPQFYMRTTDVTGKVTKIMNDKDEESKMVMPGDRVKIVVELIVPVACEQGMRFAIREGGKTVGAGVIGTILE

Experiment [2] concerns the target T2, BPG2^239-660 (two-hybrid fusion) (Arabidopsis) (UniProt Q8W4I6).
T2 sequence: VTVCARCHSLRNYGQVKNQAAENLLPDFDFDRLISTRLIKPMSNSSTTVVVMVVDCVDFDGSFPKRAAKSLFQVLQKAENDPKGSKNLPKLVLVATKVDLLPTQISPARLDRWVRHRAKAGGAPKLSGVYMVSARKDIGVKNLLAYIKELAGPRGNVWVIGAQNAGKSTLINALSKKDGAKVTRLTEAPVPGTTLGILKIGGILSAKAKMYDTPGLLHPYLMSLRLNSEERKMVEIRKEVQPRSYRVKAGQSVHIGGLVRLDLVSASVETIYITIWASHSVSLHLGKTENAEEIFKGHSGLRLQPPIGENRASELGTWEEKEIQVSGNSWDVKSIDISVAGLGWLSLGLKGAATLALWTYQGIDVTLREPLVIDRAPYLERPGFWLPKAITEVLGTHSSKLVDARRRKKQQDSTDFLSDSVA
The experiment is described as above.

Experiment [3] concerns the target T3, uS10c-GFP fusion protein (uS10c:uS10c-GFP) (Arabidopsis) (UniProt Q9LK61).
T3 sequence: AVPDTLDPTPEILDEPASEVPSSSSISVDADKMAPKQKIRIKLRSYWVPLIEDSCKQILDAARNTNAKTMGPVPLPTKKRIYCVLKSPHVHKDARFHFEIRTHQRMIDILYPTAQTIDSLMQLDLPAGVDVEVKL
Kind of experiment: co-IP; GFP-Trap agarose on native protein extracts of seven-day-old transgenic seedlings, 60 min at 4°C; 150 mM NaCl, 0.5% NP40 substitute; with or without RNase A (1 mg/ml, 20 min) before the beads; immunoblot. In general terms: In western blotting, separated proteins are transferred to a membrane and probed.

Experiment [4] addresses T4, plastid ribosomal protein S9 (uS9c) fused with the C-terminal fragment of YFP (uS9c-cYFP) (Arabidopsis) (UniProt Q9XJ27).
T4 sequence: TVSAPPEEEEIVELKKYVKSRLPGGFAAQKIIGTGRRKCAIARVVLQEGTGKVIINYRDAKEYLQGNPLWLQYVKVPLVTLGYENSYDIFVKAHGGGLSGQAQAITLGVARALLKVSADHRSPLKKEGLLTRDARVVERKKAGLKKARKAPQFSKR
Kind of experiment: split reporter; BiFC (split YFP, pUC-SPYNE/pUC-SPYCE) in Arabidopsis protoplasts, confocal microscopy.

Experiment [5] concerns the target T5, uS10c fused with the C-terminal segment of YFP (uS10c-cYFP) (Arabidopsis) (UniProt Q9LK61).
T5 sequence: T3 sequence
The experiment is described as above.

Experiment [6] deals with GFP fused with the plastid translation elongation factor EF-Tu (RAB8D-GFP) (Arabidopsis) (UniProt P17745). As to the kind of experiment: co-IP; GFP-Trap agarose on native protein extracts of seven-day-old transgenic seedlings, 60 min at 4°C; 150 mM NaCl, 0.5% NP40 substitute; with or without RNase A (1 mg/ml, 20 min) before the beads; immunoblot.

These are yes or no findings as the source states them, for the method shown. For some assays here: Binding seen in cells or lysates may run through a third protein. Some binding calls cover weakened binding; strength is not graded here. For some assays here: Tags and fused reporters may be left off the sequences shown.

B1: plastid ribosomal protein S10 (uS10c), GAL4-AD fusion in pGADT7 (protein, UniProt Q9LK61 1-191)
chain: MAVSTVSSFLLPSFGIPSSSPSSTRLKVSLLPSSSTHGGLSSCVLTKPSVSLTKVFAVPDTLDPTPEILDEPASEVPSSSSISVDADKMAPKQKIRIKLRSYWVPLIEDSCKQILDAARNTNAKTMGPVPLPTKKRIYCVLKSPHVHKDARFHFEIRTHQRMIDILYPTAQTIDSLMQLDLPAGVDVEVKL
As for B1, the binding entry in experiment [1] is given as “binds weakly”; in experiment [2], “binds”.

B2: plastid ribosomal protein S1 (bS1c), endogenous (protein, UniProt Q93VC7 45-416)
chain: AVAMSSGQTKERLELKKMFEDAYERCRTSPMEGVAFTVDDFAAAIEQYDFNSEIGTRVKGTVFKTDANGALVDISAKSSAYLSVEQACIHRIKHVEEAGIVPGMVEEFVIIGENESDDSLLLSLRNIQYELAWERCRQLQAEDVIVKAKVIGANKGGLVALVEGLRGFVPFSQISSKAAAEELLEKEIPLKFVEVDEEQTKLVLSNRKAVADSQAQLGIGSVVLGVVQSLKPYGAFIDIGGINGLLHVSQISHDRVSDIATVLQPGDTLKVMILSHDRDRGRVSLSTKKLEPTPGDMIRNPKLVFEKAEEMAQTFRQRIAQAEAMARADMLRFQPESGLTLSSDGILGPLGSELPDDGVDLTVDDIPSAVDI
For B2, the binding result in experiment [3] was “binds”.

B3: uS10c-nYFP (protein, UniProt Q9LK61 57-191)
chain: T3 sequence
Regarding B3, the binding result in experiment [4] was “binds”.

B4: BPG2 fused with the N-terminal fragment of YFP (BPG2-nYFP) (protein, UniProt Q8W4I6 54-660)
chain: CLAVKKEQVVQSVESVNGTIFPKKSKNLIMSEGRDEDEDYGKIICPGCGIFMQDNDPDLPGYYQKRKVIANNLEGDEHVENDELAGFEMVDDDADEEEEGEDDEMDDEIKNAIEGSNSESESGFEWESDEWEEKKEVNDVELDGFAPAGVGYGNVTEEKEKKKRVSKTERKKIAREEAKKDNYDDVTVCARCHSLRNYGQVKNQAAENLLPDFDFDRLISTRLIKPMSNSSTTVVVMVVDCVDFDGSFPKRAAKSLFQVLQKAENDPKGSKNLPKLVLVATKVDLLPTQISPARLDRWVRHRAKAGGAPKLSGVYMVSARKDIGVKNLLAYIKELAGPRGNVWVIGAQNAGKSTLINALSKKDGAKVTRLTEAPVPGTTLGILKIGGILSAKAKMYDTPGLLHPYLMSLRLNSEERKMVEIRKEVQPRSYRVKAGQSVHIGGLVRLDLVSASVETIYITIWASHSVSLHLGKTENAEEIFKGHSGLRLQPPIGENRASELGTWEEKEIQVSGNSWDVKSIDISVAGLGWLSLGLKGAATLALWTYQGIDVTLREPLVIDRAPYLERPGFWLPKAITEVLGTHSSKLVDARRRKKQQDSTDFLSDSVA
Turning to B4, the binding entry in experiment [5] is given as “binds”; in experiment [4], “no binding”.

B5: BPG2, endogenous (protein, UniProt Q8W4I6 54-660)
chain: B4 chain
On to B5, for which the values for the binding entry in experiment [3] and in experiment [6] were “binds” and “no binding”, respectively.

The record behind these values is publication PMC11260468.
